In PubChem BioAssay AID1508624 (National Center for Advancing Translational Sciences (NCATS), 2021):
Among all 48,000 compounds or so, about 120 (0.25%) were called active. About 4% were inconclusive and are not listed. Calls follow the shape of the dose curve; as a rule, active = well fitted activation curve with a large enough effect; inconclusive = small, poorly fitted or top-dose-only effect, or another doubt; inactive = no such curve, though single readings can be large or run the other way. This is one part of the list.

Assay: Primary qHTS for Identification of Small Molecule Activators of Huntingtin-Antisense Promoter Activity; also: nearly all actives have a fitted effect of over 55% in size
Conditions: HEK293 HTT-AS promoter firefly luciferase reporter, 24 h; series mostly up to 57.5 µM; activity change, positive = activation: at the top concentration
Summary of the method: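 Quantitative HTS used concentration series of up to 57.5 uM final on HEK293 luciferase reporter cells, 24 h at 37 degrees C. Readout was Dual-Glo firefly luminescence.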

Activity change, positive = activation, inactive:
Cc1ccc(NC(=O)C2CCN(c3nc4ccccc4[nH]3)CC2)cc1Cl -20%
COc1ccccc1CNC(=O)Nc1ccc2c(c1)N(C)C(=O)c1ccccc1S2 -35.3%
O=C(CSc1nc2c([nH]c3ccccc32)c(=O)n1-c1ccc(F)cc1)N1CCCCCC1 -21.5%
COc1ccc(Br)cc1CNC(=O)CCC(=O)N1CCSc2ccccc21 -16.4%
Clc1cccc(-c2noc3ncnc(NC4CCCCC4)c23)c1 -31.4%
O=C(Cn1cc(SCc2cccc(C(F)(F)F)c2)c2ccccc21)N1CCCCCC1 -9.61%
COc1cccc2cc(-c3nc(-c4cccs4)no3)c(=O)oc12 8.12%
COc1cc(NC(=O)CCc2c(C)nc3c(c(C)nn3-c3ccccc3)c2C)cc(OC)c1OC -11.5%
CN1C(=O)C2CCCCN2c2ccc(C(=O)NCc3ccccc3Br)cc21 (stereo not given) -19.2%
CCOC(=O)c1c(C)c(C(=O)NCCc2ccc(OC)cc2)c(C)n1CC -13.3%
CC(=O)c1c(C)n(-c2cccc(C)c2)c2ccc(OC(=O)COc3ccccc3)cc12 -19.3%
COc1cccc(-c2cc(C(=O)NCCc3ccc(C)cc3)[nH]n2)c1 2.67%
Cc1ccc(NS(=O)(=O)c2c(C(=O)N3CCCCCC3)c(C)n(C)c2C)cc1F -6.32%
O=C(Nc1ccc(Br)cc1)c1ccc(Br)c(S(=O)(=O)NCc2ccccc2)c1 -39.1%
CCOc1ccc(CNC(=O)Cn2nc(C)c3sc4ccccc4c3c2=O)cc1 -7.56%
O=c1n(Cc2ccc(F)cc2Cl)c2ccccc2c2nc(-c3ccccc3)nn12 -4.38%
COc1ccc2c(c1)CCc1c(C(=O)Nc3c(C)nn(Cc4ccccc4Cl)c3C)noc1-2 -37.1%
CCCCN(CC)CCCNC(=O)c1cn(CC(C)C)c(=O)c2c1c1ccccc1n2C -12.4%
Cn1c(=O)c2c(nc(NCCc3ccccc3)n2Cc2cccc(Br)c2)n(C)c1=O -27.1%
Cc1ccc(CCNC(=O)c2nnc(Cc3cccc(F)c3)o2)cc1 -11.2%
COc1ccc(-c2cn3nc(N4CCCC(C(=O)Nc5ccc(Cl)cc5C)C4)sc3n2)cc1 (stereo not given) -2.86%
CC1Cc2ccccc2N1S(=O)(=O)c1nnc(NC(=O)c2ccccc2Br)s1 (stereo not given) -32.3%
CC(C)Oc1ccc(C(=O)Nc2ccc3oc(-c4ccncc4)nc3c2)cc1 -27.1%
COc1ccc(S(=O)(=O)NCC(c2cccs2)S(=O)(=O)c2ccc(C)cc2)cc1F (stereo not given) -15.1%
Cc1[nH]c2ccc(F)cc2c1CCNC(=O)c1cc2cc(Cl)ccc2oc1=O -10.7%
COc1cc(NC(=O)C(NC(=O)C2CCC(C)CC2)C(C)C)cc(OC)c1OC (stereo not given) 14.7%
COc1ccc(Cl)cc1NS(=O)(=O)c1c(C)nc2scc(C)n2c1=O -3.46%
COCCn1c(CNC(=O)c2cc([N+](=O)[O-])ccc2Cl)nc2cccnc21 -10%
Cc1ccc(CNC(=O)c2c[nH]c3ccc(S(=O)(=O)Nc4ccc(C(C)C)cc4)cc3c2=O)cc1 -22%
O=C(NC1(C(F)(F)F)NC(=O)N(CCc2ccccc2)C1=O)c1ccccc1F (stereo not given) 3.35%
COc1cccc(CSc2nc3cc(OC)c(OC)cc3c3nc(CCn4nc(C)cc4C)nn23)c1 0.717%
COC(=O)c1cc2sc(C)cc2n1Cc1ccc(F)cc1Cl -2.16%
CCOc1ccc2nc(N(Cc3cccnc3)C(=O)c3ccc4c(c3)OCCO4)sc2c1 8.63%
COc1ccccc1CNC(=O)Cn1c(=O)ccc2cc(S(=O)(=O)N3CCC(C)CC3)ccc21 -7.15%
O=S(=O)(c1ccc(Cl)cc1)c1nc(-c2ccccc2Br)oc1N1CCOCC1 -32.7%
CCOC(=O)c1ccccc1NC(=O)Cc1c(C(=O)O)c(C)cn1C -20.6%
CCOC(=O)c1ccc(N2C(=O)c3n[nH]c(C)c3C2c2ccc(O)c(OC)c2)cc1 (stereo not given) -18.7%
COc1ccc(N2CCN(C(=O)Cn3cnc4sc(C)c(S(=O)(=O)N5CCC(C)CC5)c4c3=O)CC2)cc1 9.93%
Cc1cccc(CS(=O)(=O)CC2Nc3ccc(C(=O)NCc4ccccc4)cc3NC2=O)c1 (stereo not given) -24.9%
Cc1ccc(-n2ncc(C(=O)N3CCN(c4ccccn4)CC3)c2C2CCN(C(=O)OC(C)(C)C)CC2)cc1C -1.82%
Cc1cc(=O)oc2c3c(ccc12)OCN(Cc1ccccc1Cl)C3 2.78%
COc1ccc(NC(=O)Cn2cnc3c(nc4n3CCCCC4)c2=O)c(OC)c1 -5.79% [at 11.5 µM, percent change from vehicle, -100% = no light]
COCCCn1c(=N)c(C(=O)NC2CCCCC2)cc2c(=O)n3ccccc3nc21 -8.03%
COc1ccc(C2=CC(c3ccc(N(C)C)cc3)n3nnnc3N2)cc1 (stereo not given) 19.9%
Cc1c(CNC2CCCCCC2)c(C(=O)O)c(C)n1Cc1c(F)cccc1Cl -15.2%
Cc1oc2ncn(CC(C)C)c(=O)c2c1C(=O)N1CCN(c2ccccc2F)CC1 -1.33%
CCc1ccc(NC(=O)C2(c3cccs3)CCOCC2)cc1 -15.5%
Cc1cc(C)c(NC(=O)CN(c2ccccc2)S(=O)(=O)N(C)C)c(C)c1 -20.5%
O=C(Nc1ccc2oc(-c3ccc4ccccc4c3)nc2c1)c1cccc(Cl)c1Cl 20.2%
CSc1ccc(CCNC(=O)CN2C(=O)COc3ccc(S(=O)(=O)N4CCCC4)cc32)cc1 -32.8%
CCOc1ccc(NC(=O)c2cnn3c2NC(c2ccccc2)=CC3c2cccc(OC)c2OC)cc1 (stereo not given) -31.3%
Clc1ccc(-c2nnn3c2nc(N2CCCCC2)c2ccccc23)cc1 -1.52%
Cc1ccc(NC(=O)N(Cc2c[nH]c3ccccc23)C2CCCCCC2)cc1C 6.56%
O=c1n(Cc2ccc([N+](=O)[O-])cc2)c2ccccc2c2nc(-c3ccccc3)nn12 -5.56%
Cc1c(NC(=O)Nc2ccccc2C(F)(F)F)c(=O)n(-c2ccccc2)n1C 0.905%
CCOc1ccc(C2=C(C(C)=O)Sc3nnc(C)n3N2C(C)=O)cc1 -10.1%
Cn1c(=O)n(C)c2cc(CNCc3ccc(F)cc3)ccc21 -2.97%
Cc1ccc(C(=O)N2CCc3cc(CNC(=O)c4ccccc4F)ccc32)cc1 -28.3%
CCOc1ccc(NC(=O)c2cccc3c(=O)c4c([nH]c23)CCCC4)cc1 -8.45%
Cc1cc(C)cc(-n2c(SCC(=O)Nc3ccccc3F)nc3c(oc4ccccc43)c2=O)c1 -23%
